Results on 26 molecules are retold here after PubChem BioAssay AID463173 (ICCB-Longwood Screening Facility, Harvard Medical School, 2010).

Among all 52,000 compounds or so, about 1,700 (3.3%) were called active. No stated cut-off is given here; in the data, active means survival mostly below about 52% (no sharp cut-off); inactive means mostly above about 56%. The list shows a part of the results.

This assay has as its system Wild type. The assay can be described thus: growth inhibition of S. aureus wild type versus tarO mutant, primary screen, teichoic acid synthesis inhibitors, RN4220, OD600 (AID 463173). The settings on record: S. aureus RN4220 wild type/DeltatarO growth, OD600, 18 h, active compounds read low, screened at 18.75 µg/mL (by protocol).
As for `CC(=O)Oc1ccc(C(=O)NC2CCSC2=O)cc1` (stereo unspecified), the survival is inactive: 100%.
Then `O=c1[nH]c2ccccc2cc1CNc1ccccc1`, with inactive: 101%; and `Cc1oc2ncn(C)c(=O)c2c1C(=O)NC(C)c1ccccc1` (stereo unspecified), with inactive: 129%; and `COc1ccccc1NCc1cccn1-c1nnc(N2CCOCC2)s1`, with inactive: 110%.
Take `NC(N)=Nc1nc2cc(Cl)ccc2o1`: the survival is inactive: 114%.
Then `Cc1ccc(C)c(CN2C(=O)CSc3ccc(C(=O)NCc4ccc(F)cc4)cc32)c1`, with inactive: 79%; and `O=C(CSC1=Nc2ccccc2N=C(c2ccc(F)cc2)C1)NCc1ccc(F)cc1`, with inactive: 83%; and `CCS(=O)(=O)N1CCc2cc(C(=O)Nc3cccc(Cl)c3C)ccc21`, with inactive: 89%.
As for `O=C(c1cccc(Br)c1)N1CCN(Cc2cc(=O)n3nc(-c4ccccc4)sc3n2)CC1`, the survival is inactive: 84%.
`CCC(=O)N1c2nc(-c3ccco3)nn2C2(CCCCC2)[C@@H]2CCCC[C@@H]21`: the survival was inactive: 128%.
On to `Cc1ccc(CSc2nc3cccnc3n2Cc2ccc(C(=O)NCCc3ccccc3)cc2)cc1`, for which the survival was inactive: 65%.
As to `O=C(CN1C2=NCCN2c2ccccc21)C12CC3CC(CC(C3)C1)C2`, the survival was inactive: 98%.
Turning to `CCOc1c(Cl)cc(Cl)cc1CNCCSc1nnnn1C`, the survival was inactive: 116%.
Consider `COc1ccc(N2CCN(C(CNC(=O)C(=O)NCCCN(C)C)c3cccnc3)CC2)cc1` (stereo unspecified), for which the survival is inactive: 84%.
`O=C(Nc1cc2c(cc1C(=O)c1ccccc1Cl)OCCO2)c1ccc(Br)cc1`: the survival was inactive: 73%.
With `Cc1nc2c(-c3ccccc3)c(C)nn2c(C)c1CCC(=O)NCc1ccccc1Cl`, the survival was inactive: 83%.
With `CCOC(=O)c1[nH]c(C)c(Cc2ccc(OCC)cc2)c1C`, the survival is inactive: 111%.
For the molecule `Cc1ccc(-n2nnnc2CNC(=O)c2ccccc2S(C)(=O)=O)cc1C`, the survival is inactive: 83%.
Then `FC(F)(F)c1cc(-c2ccccc2)nc2cc(-c3ccc(Br)cc3)nn12`, with inactive: 67%.
As to `COc1ccc(-c2cn3nc(N4CCCC(C(=O)Nc5ccc(C)c(C)c5)C4)sc3n2)cc1` (stereo unspecified), the survival is inactive: 65%.
Turning to `O=C(CCC(=O)OCC(=O)c1ccc(Cl)cc1)Nc1ccc(Oc2ccccc2)cc1`, the survival is inactive: 129%.
With `O=S(=O)(CCc1nc2ccccc2s1)c1ccc(Cl)cc1`, the survival is inactive: 88%.
On to `CCc1ccc2occ(CC(=O)Nc3c(C(=O)Nc4ccc(C)cc4)oc4ccccc34)c2c1`, for which the survival is inactive: 114%.
As to `COC(=O)c1c(SCC(=O)Nc2cc(C)cc(C)c2)[nH]c2ccccc2c1=O`, the survival is inactive: 40%.
As for `Cn1c(C(=O)N(Cc2ccccc2)Cc2cccs2)cc2sccc21`, the survival is inactive: 120%.
Then `CCCn1cc(S(=O)(=O)c2cc(C)ccc2C)c(=O)c2cc(F)c(N3CCOCC3)cc21`, with inactive: 135%.
